Screen size: about 45,000 compounds; about 200 (0.44%) were called active. Roughly 7% stayed inconclusive and do not appear here. The call rests on the fitted dose curve; in most records, active means well fitted activation curve with a large enough effect; inconclusive means small, poorly fitted or top-dose-only effect; inactive means no such curve, though single readings can be large or run the other way. The list shows a part of the results.
Assay: qHTS of TDP-43 Inhibitors: NCGC Sytravon Library Screen; further: 0% is about no effect; nearly all actives have a fitted effect of over 55% in size
Details: yeast TDP-43 toxicity rescue, BacTiter-Glo growth, 24 h; series mostly up to 46.1 µM; growth rescue (activation): at the top concentration
Summary of the method: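 TDP-43-expressing yeast, pregrown in raffinose, seeded at OD600 0.02 in galactose medium with compound for 24 hr at 30 deg C. Growth read by BacTiter-Glo luminescence, so rescue of toxicity appears as activation.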

SMILES | growth rescue (activation)
CSc1ncccc1C(=O)OCC(=O)NC1CC1 | inactive: 21.1%
COc1ccc(N(C(=O)c2snc(C(N)=O)c2N)C(CC(C)C)C(=O)NCC2CCCO2)cc1 (stereo unspecified) | inactive: 4.09%
COc1ccc(NS(=O)(=O)c2cc(NC(=O)CNC(=O)c3cccc(OC)c3)ccc2C)cc1 | inactive: 17.1%
CS(=O)(=O)N(CC(=O)Nc1ccc(F)c(F)c1)c1cccc([N+](=O)[O-])c1 | inactive: 25.6%
CC(=O)Nc1ccc(NC(=O)COC(=O)CCc2nc3ccccc3s2)cc1 | inactive: 19.5%
CCC(OC(=O)CN1C(=O)C(=O)c2ccccc21)C(=O)Nc1ccccc1OC (stereo unspecified) | inactive: -0.466%
O=S1(=O)CC(NCc2ccccc2)C(Nc2ccc(Cl)cc2)C1 (stereo unspecified) | inactive: 20.7%
COc1ccc(N2CCN(C(=O)C3(S(=O)(=O)c4ccc(C)cc4)CC3)CC2)cc1 | inactive: 5.37%
CCOC(=O)c1c(NC(=O)COC(=O)c2ccccn2)sc2c1CCC2 | inactive: 28.3%
CCN(CC)S(=O)(=O)c1ccc(N/N=C/c2ccc(O)cc2O)nc1 | inactive: -24.9%
Brc1ccccc1C1=Nn2c(nnc2-c2ccco2)SC1 | inactive: 7.23%
COc1ccc(C(=O)NC(=S)Nc2ccc(S(=O)(=O)Nc3cc(OC)ncn3)cc2)cc1 | inactive: -23.3%
CCC(c1nnnn1Cc1ccc2c(c1)OCO2)N1CCN(c2ccc(F)cc2)CC1 (stereo unspecified) | inactive: 26.1%
CC1(C)SC(=S)N(/N=C/c2ccccc2O)C1N(O)C(=O)Nc1ccccc1 (stereo unspecified) | inactive: 9.7%
CC1(c2ccccc2)NC(=O)N(CC(=O)NCc2ccc3c(c2)OCO3)C1=O (stereo unspecified) | inactive: -3.58%
Cc1cc(C(=O)N(C)Cc2c(F)cccc2Cl)c2ccccc2n1 | inactive: 4.46%
CCSCc1nnc(SCC(=O)c2ccc(OC)cc2)n1C | inactive: 3.12%
CC(C)(C)n1nnnc1C(c1ccc(F)cc1)N1CCC(C(N)=O)CC1 (stereo unspecified) | inactive: -4.46%
O=c1[nH]cnc2sc3c(c12)CCCCC3 | inactive: 20.5%
COc1ccc(NC(=O)CSc2nnnn2C2CCCC2)cc1 | inactive: 7.17%
N#CCCn1cc(C(=O)NCc2ccccc2)c(-c2cccs2)n1 | inactive: 16%
CCCC(=O)NC(=S)Nc1cccc(NC(=O)c2ccccc2)c1 | inactive: 12.7%

SMILES | growth rescue (activation)
COc1ccc(Nc2nc(C)nc3sc4c(c23)CCC4)cc1O | inactive: 7.45%
CCOC(=O)c1oc2ccc3c(c2c1C)C(=O)CC1(CCN(C(=O)OCC)CC1)O3 | inactive: 22.4%
CCN(CC)S(=O)(=O)c1cccc(C(=O)OCC(=O)Nc2ccc3c(c2)c2ccccc2n3CC)c1 | inactive: -18.3%
CCn1c(SCC(=O)NCc2ccccc2)nnc1-c1cccnc1 | inactive: -5.14%
COCCNC(=O)C(c1ccc(Cl)cc1)N(CCOC)C(=O)CCC(=O)Nc1ccccn1 (stereo unspecified) | inactive: -0.306%
Cc1c(C#N)c2ccccc2n1C | inactive: 7.94%
COc1ccc(OCc2nnc(SCC(=O)N3CCCCC3)o2)cc1 | inactive: 16.4%
COc1ccc(Br)c(C(=O)NCCC(C)C)c1 | inactive: -7.31%
COc1cc(C)c(NC(=O)COc2ccc3c(c2)OCO3)cc1C | inactive: -0.759%
Cc1ccc(S(=O)(=O)N2CCC[C@H]2C(=O)NC2CCCCC2)cc1 | inactive: 24.3%
Cc1cc(NC(=O)c2ccc(Cl)cc2Cl)n(CCC#N)n1 | inactive: 14.8%
CN(C)S(=O)(=O)c1ccc(Cl)c(NC(=O)CNC2(C)CCS(=O)(=O)C2)c1 (stereo unspecified) | inactive: 7.81%
COc1ccc(C(=O)Nc2ccc(NC(=O)C3CC3)cn2)cc1 | inactive: 17.3%
CSCC[C@H](NC(=O)OC(C)(C)C)C(=O)N/N=C/c1cccc2cccnc12 | inactive: -11.4%
Cc1ccc(CNC(=O)c2cc(C)nn2-c2ccccc2)cc1 | inactive: 24%
N#C/C(=C(/O)COC(=O)COc1ccc(Cl)cc1)c1nc2ccccc2[nH]1 | inactive: -1.2%
CC(=O)/C(N=Nc1ccc2c(c1)OCCO2)=C(\C)O | inactive: 16.1%
CC(=O)Nc1nc(-c2ccc3c(c2)CCN3C(=O)C2CC2)c(C)s1 | inactive: -0.621%
CCOC(=O)C1CCCN(C(=O)COc2ccc(S(=O)(=O)N3CCOCC3)cc2)C1 (stereo unspecified) | inactive: 17.3%
CC1(C)CC(=O)/C(=C(/O)Cc2ccccc2)C(=NCCc2ccccc2)C1 | inactive: 26.6%
CC(=O)Cc1cc(O)c2ccccc2c1OC(=O)c1ccccc1 | inactive: 15%
COc1ccc(NC(=O)N2CCCC(C(=O)NCc3ccccc3F)C2)cc1 (stereo unspecified) | inactive: 4.83%

SMILES | growth rescue (activation)
COc1ccc(S(=O)(=O)N2CCCC(C(=O)NC3CCCC3)C2)cc1OC (stereo unspecified) | inactive: 1.89%
O=C(COC(=O)/C=C/c1cccs1)Nc1nc(-c2ccccc2)cs1 | inactive: -13.7%
CC1CCCC(NC(=O)COC(=O)/C=C/c2ccc(S(=O)(=O)N3CCOCC3)cc2)C1C (stereo unspecified) | inactive: 32.9%
Cc1cc(C)n2nc(C(=O)OCC(=O)Nc3ccc(C)c(S(=O)(=O)N4CCOCC4)c3)nc2n1 | inactive: -6.39%
COc1ccc(CCNC(=O)CSc2cccc3cccnc23)cc1OC | inactive: -7.14%
CCn1c2ccc(F)cc2c2nc3ccccc3nc21 | inactive: 6.65%
c1ccc(CNc2nc(-c3cccnc3)cs2)cc1 | inactive: 18.1%
O=C(Nc1cccc(S(=O)(=O)N2CCOCC2)c1)c1cn(-c2ccccc2)nc1-c1ccccc1 | inactive: -4.52%
CCOc1ccc2nc(SCc3ccc(OC)cc3)sc2c1 | inactive: 9.11%
Cc1ccc(/C=N/NC(=O)CSc2nc3ccccc3o2)cc1 | inactive: 7.47%
Cc1nnc(NC(=O)Cn2nc(C)c3ccccc3c2=O)s1 | inactive: 7.94%
COCCNc1nc(-c2ccc(OC)cc2)c(-c2ccc(OC)cc2)s1 | inactive: 12.3%
COc1ccc(S(=O)(=O)N(CC(=O)NCc2ccncc2)c2ccc(C)cc2)cc1OC | inactive: 4.86%
CNC(=S)N1N=C(c2ccc(Br)cc2)CC1c1ccc(N(C)C)cc1 (stereo unspecified) | inactive: 15.9%
Cc1c(C(=O)O)cccc1N1C(=O)Nc2ccccc2N1O | inactive: 29.8%
CN1N=C(C(=O)N2CCN(c3ccc([N+](=O)[O-])cc3)CC2)CCC1=O | inactive: 20.1%
COc1ccc(C(CNc2ccc(S(=O)(=O)N3CCN(C)CC3)cc2[N+](=O)[O-])N(C)C)cc1 (stereo unspecified) | inactive: 22.1%
COc1cc(NC(=S)NC(=O)CCc2ccccc2)cc(OC)c1 | inactive: -13.3%
COc1ccc(NS(=O)(=O)c2cccc(C(=O)NN=Cc3ccc(OC)c(O)c3)c2)cc1 | inactive: 8.62%
COc1ccc(-c2ccc(C(=O)Nc3cccc(N(C)C)c3)c3occc23)c(C)c1 | inactive: 29.6%
c1ccc(Nc2nc(-c3ccncc3)cs2)nc1 | inactive: 7.93%
Cc1ccc(C(O)c2ncc(-c3ccc(Cl)cc3)[nH]2)cc1F (stereo unspecified) | inactive: 3.55%

SMILES | growth rescue (activation)
O=[N+]([O-])c1ccc(C(O)CN2CCN(c3ccccc3)CC2)cc1 (stereo unspecified) | inactive: 6.17%
CCOc1ccc(-n2c(SCC(N)=O)nnc2-c2ccco2)cc1 | inactive: 1.21%
CN(Cc1ccccc1)C(=O)c1cc2cc(F)ccc2[nH]1 | inactive: 8.35%
Cc1ccccc1-c1cnc(C(O)c2cc(Cl)cc(Cl)c2)[nH]1 (stereo unspecified) | inactive: 17.3%
CCN(CC)P(=O)(c1ccccc1)c1c(C)nc2ccccn12 (stereo unspecified) | inactive: 7.43%
Cc1ccc2nc(-c3ccc(NC(=O)CCN4C(=O)c5ccccc5C4=O)cc3)sc2c1 | inactive: -9.48%
Cc1ccc(OCC(=O)NCCCNC(=O)c2ccncc2)cc1C | inactive: 4.59%
O=C(CCn1cnc2ccccc21)N/N=C/C=C/c1ccccc1 | inactive: 13.2%
Cc1ccn2c(Nc3ccccc3)c(-c3ccccn3)nc2c1 | inactive: 10.5%
COC(=O)CCCCCCCCCC[N+]1(C)CCCCC1 | inactive: -13%
CC(=O)Nc1ccc(-c2ccnc3c2CC(C)(C(=O)NCCc2ccccc2)O3)cc1 (stereo unspecified) | inactive: 3.43%
Cc1ccc(C(=O)N/N=C/c2ccc(-c3ccccc3[N+](=O)[O-])o2)cn1 | inactive: 10.7%
O=C(CSC1CCCCC1)Nc1nccs1 | inactive: 29.7%
CCOC(=O)C1CCCCN1Cc1ccc(OC)c(OC)c1 (stereo unspecified) | inactive: 1.66%
O=C(NCCCN1CCN(c2cccc(Cl)c2)CC1)c1cccc(N2CCCC2=O)c1 | inactive: -7.5%
Cc1ccc(S(=O)(=O)Nc2nc3ccccc3nc2NCC2CCCO2)cc1 (stereo unspecified) | inactive: 21.7%
COCCNC(=O)CN(C(=O)CCC(=O)Nc1nccs1)c1ccc2c(c1)OCO2 | inactive: 0.753%
Cc1cc(NC(=O)COC(=O)c2cc(S(=O)(=O)N3CCOCC3)ccc2N2CCCCC2)no1 | inactive: 13.2%
CC1(C(=O)NS(=O)(=O)c2ccc(F)cc2F)CCN1C(=O)c1cccc(F)c1 (stereo unspecified) | inactive: -5.7%
COc1ccc(N(C(=O)c2snc(C(N)=O)c2N)C(C(=O)NC2CCCC2)c2ccc(OC)c(OC)c2)cc1 (stereo unspecified) | inactive: -2.59%
O=C(O)Cc1sc(-c2cccnc2)nc1-c1ccc(Br)cc1 | inactive: -0.36%
CCCOc1ccc(CNC(=O)c2ccc3c(c2)N(Cc2ccccc2)CCS3)cc1 | inactive: -2.63%

SMILES | growth rescue (activation)
COc1ccc(-c2cc(=O)[nH]c(=S)[nH]2)cc1 | inactive: 16.7%
CC1(C(=O)NS(=O)(=O)c2ccccc2)CCN1C(=O)Cc1cccc2ccccc12 (stereo unspecified) | inactive: -6.56%
Cc1ccc(S(=O)(=O)NC(=O)C2(C)CCN2C(=O)Cc2ccc(-c3ccccc3)cc2)cc1 (stereo unspecified) | inactive: 0.75%
CC(NC(=O)CCC(=O)N1CCN(S(=O)(=O)c2ccc(Cl)cc2)CC1)c1ccccc1 (stereo unspecified) | inactive: -40.3%
O=C(O)c1cccc(S(=O)(=O)Nc2ccc3[nH]c(=O)[nH]c3c2)c1 | inactive: -35.2%
CCC(CC)C(=O)NN(C(=O)c1ccncc1)C1CC(=O)N(c2ccccc2)C1=O (stereo unspecified) | inactive: 8.35%
Cc1ccc(-n2c(SCC(=O)Nc3ccc4cn[nH]c4c3)nnc2-c2ccco2)cc1 | inactive: -13%
Cc1ccsc1C(=O)OCc1nnc(-c2ccccc2)o1 | inactive: -3.73%
O=S(=O)(c1ccc(Br)cc1)N1CCCN(Cc2cccc(F)c2)CC1 | inactive: -19.3%
O=C(Nc1nnc([C@@H]2C[C@H](O)[C@@H](CO)O2)s1)Nc1ccccc1F | inactive: 0.846%
COC(=O)c1ccc(CNC(=O)COC(=O)CC23CC4CC(CC(Br)(C4)C2)C3)cc1 | inactive: 9.14%
CC1=C(c2ccc(C)cc2)[N+](=O)C(C)(C)N1[O-] | inactive: 1.28%
Cc1c(NC(=O)c2csc3c2CCCC3)c(=O)n(-c2ccccc2)n1C | inactive: -2.42%
Cc1cccc(C(O)c2ncc(-c3ccccc3)[nH]2)c1C (stereo unspecified) | inactive: 0.291%
CC(C)NS(=O)(=O)c1ccc(OCC(=O)N2CCN(c3ccccc3)CC2)cc1 | inactive: 9.54%
Cc1ccc(S(=O)(=O)N2CCN(C(=O)CN3CCOCC3)C2)cc1 | inactive: 21.6%
O=C(C1COc2ccccc2O1)N1CCN(Cc2ccc3c(c2)OCO3)CC1 (stereo unspecified) | inactive: -9.37%
OC(c1ccccc1)C(CN1CCOCC1)c1ccccc1 (stereo unspecified) | inactive: 22.2%
